Here are results for 25 compounds from the supplement of paper PMC4723716.

In all, about 3,600 compounds were measured (“viability index relative to DMSO control”: median about 0.81, lowest 2% from about 0.13 on). This is one part of the list.
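Further: 384-well serum-free SaLSSA: MitoTracker Red CMXRos staining with saponin lysis, high-content imaging, treated-well particle count divided by plate-mean count of DMSO wells.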

The experiment relates to Plasmodium falciparum NF54 stage V gametocytes. The experiment in a line: viability index relative to DMSO control (fraction); higher = less gametocyte killing. The settings on record: 1.25 µM, incubation time: 72 h.
Compound `N#Cc1cc(N2CC3CC(C2)c2cccc(=O)n2C3)c([N+](=O)[O-])cc1C#N` (stereo not given) returned a viability index of 1.11.

Consider `CCCCCCn1c(=O)c(C(=O)NCC[N+](CC)(CC)CC)c(O)c2ccccc21`, for which the viability index was 0.796.

As to `C=CC1CN2CCC1CC2C(OC(=O)C1CC1)c1ccnc2ccccc12` (stereo not given), the viability index is 0.902.

`C=CC1CN2CCC1CC2[C@@H](OC(=O)c1ccc(OC)cc1)c1ccnc2ccccc12` (stereo not given in full): the viability index amounted to 1.28.

`O=C(c1ccccc1)C1NC1c1ccc(Br)cc1` (stereo not given) gave a viability index of 0.953.

For the compound `CSC(Cl)=C(NC(C)=O)[P+](c1ccccc1)(c1ccccc1)c1ccccc1`, the viability index was 0.871.

As to `CCOC(=O)c1c(C)n(Cc2ccccc2)c2c1cc(O)c1c2c(-c2ccccc2)nn1-c1ccccc1`, the viability index turned out to be 0.826.

The compound `C=CC1CN2CCC1CC2[C@@H](OC(=O)c1ccc(C(C)(C)C)cc1)c1ccnc2ccc(OC)cc12` (stereo not given in full) had a viability index of 1.02.

Regarding `CCN1CCN(c2c(Cl)cccc2NC(=O)C(Cl)(Cl)Cl)CC1`, the viability index worked out at 0.712.

The compound `O=C1CN=C(c2ccccc2Cl)c2cc(Cl)ccc2N1Cc1cccc([N+](=O)[O-])c1` had a viability index of 0.788.

As for `CC(C)N1CC=C(c2c[nH]c3ccccc23)CC1`, the viability index was determined as 0.887.

`CCCc1cc(O)c2c3c(c(=O)oc2c1)CN(C)CC3`: the viability index came out at 0.552.

`CCn1c(C)cc(/C=C2\C(=O)NC(=O)N(c3cccc(Cl)c3)C2=O)c1C` yielded a viability index of 1.12.

In the case of `C=CC1CN2CCC1CC2C(OC(C)=O)c1ccnc2ccc(OC)cc12` (stereo not given), the viability index came to 0.801.

Turning to `CC(C)NC(=O)c1cn(Cc2ccccc2)cc(C(=O)NCCc2nc3ccccc3[nH]2)c1=O`, the viability index was determined as 0.942.

The compound `NC(=N[N+](=O)[O-])Nc1ccc(NC(=O)Nc2ccc(Cl)cc2)cc1` displayed a viability index of 0.545.

`O=c1c2ccccc2nc(C=Cc2ccc([N+](=O)[O-])o2)n1-c1ccc(Br)cc1` came in with a viability index of 0.718.

In turn, `C=CC1CN2CCC1C(C(O)c1ccnc3ccc(OC)cc13)C2` (stereo not given) yielded a viability index of 0.411.

On to `COc1cc(CN2CC3CC(C2)c2cccc(=O)n2C3)ccc1O` (stereo not given), for which the viability index amounted to 1.05.

Regarding `CCN1CCC(N2CCC(n3c(Cc4ccccc4OC)nc4cc(F)ccc43)CC2)CC1`, the viability index stood at 1.03.

On to `C=CC12CCN(CC1)C(C(O)c1ccnc3ccc(OC)cc13)C2` (stereo not given), for which the viability index is 0.865.

On to `Cc1c2ccccc2c(C)c2ccccc12`, for which the viability index amounted to 1.04.

Turning to `Cc1ccc(NC=C2C(=O)NC(=S)NC2=O)cc1`, the viability index was 1.01.

`CCOC(=O)CN(N=O)C1=C(N2CC2)C(=O)c2ccccc2C1=O`: the viability index was found to be 0.815.

Turning to `C=C[C@H]1CN2CC[C@H]1C[C@@H]2[C@@H](OC(=O)Cc1cccs1)c1ccnc2ccccc12`, the viability index was determined as 0.656.
